Results published in the supplement of paper PMC3334620.
The full ranking holds about 33,000 sequences; the median of “E-score (-0.5 to 0.5)” is about -0.017, and the highest 2% start at about 0.3. This is one part of the list.

target: T1, Sut1 (UniProt P53032); assay: PBM E-score (8-mer binding enrichment) (E-score (-0.5 to 0.5)); higher = stronger / more preferred TF binding; most listed sequences are background and not binding sites; conditions: protein concentration: 200 nM; construct: GST-full length
T1 sequence: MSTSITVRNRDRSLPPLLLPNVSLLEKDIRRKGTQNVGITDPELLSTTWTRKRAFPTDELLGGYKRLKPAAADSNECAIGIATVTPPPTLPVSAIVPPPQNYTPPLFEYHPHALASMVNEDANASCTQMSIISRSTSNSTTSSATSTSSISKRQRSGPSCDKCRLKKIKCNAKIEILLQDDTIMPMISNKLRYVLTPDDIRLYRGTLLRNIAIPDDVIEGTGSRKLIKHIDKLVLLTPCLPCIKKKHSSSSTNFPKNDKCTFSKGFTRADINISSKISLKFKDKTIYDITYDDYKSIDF
Procedure: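 Universal 'all 10-mer' protein binding microarrays (Agilent AMADID 015681) probed with GST-tagged S. cerevisiae TFs (full-length or DBD) made by in vitro transcription/translation (PURExpress), about 100-200 nM. Bound TF was detected with fluorescent anti-GST. Each ungapped 8-mer (which stands for itself and its reverse complement) is scored by the PBM enrichment score (E-score), a modified Wilcoxon-Mann-Whitney statistic from -0.5 to +0.5, computed with the Universal PBM Analysis Suite. Scale: above 0.35 generally sequence-specific binding.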

| Sequence | PBM E-score |
| --- | --- |
| AAGTTTAT | 0.219 |
| GCATAGCA | -0.144 |
| GACCTTGC | -0.163 |
| GGGGTCTA | 0.03 |
| GTATCCCA | -0.144 |
| CACCCATG | -0.131 |
| AAAGGCAA | 0.191 |
| ATTCGCAA | 0.178 |
| CACTACTA | 0.0443 |
| CGAATGAC | 0.117 |
| GTAAAGAA | 0.21 |
| CATTTAAG | 0.168 |
| CGTAGCTC | 0.112 |
| AAGAAGGC | -0.133 |
| ACCGTTAC | -0.0733 |
| CACTCTAA | 0.0202 |
| GGGAATTA | 0.143 |
| GACGCCTC | -0.125 |
| CATTATAG | 0.0697 |
| GCAGTTAC | 0.0174 |
| ATCTCTCG | -0.105 |
| GTTACAGA | -0.0314 |

| Sequence | PBM E-score |
| --- | --- |
| ATACGAAT | 0.0809 |
| CCCACGCC | -0.284 |
| TCGATTCA | 0.096 |
| CCTCATCA | -0.0454 |
| ATGACTTC | -0.029 |
| GACGGCAA | -0.0649 |
| ACTTTCCT | -0.0678 |
| CGCAAGCC | -0.0959 |
| CATTTGGC | 0.0871 |
| ACGCCTGA | 0.0136 |
| GTGACTTA | 0.103 |
| AAGGTAAG | 0.00196 |
| TATGCGCA | -0.318 |
| CAATCGCG | -0.0635 |
| ACGCGACC | -0.227 |
| GGCAGGGA | -0.294 |
| TCATGGCA | -0.101 |
| CGTCGAGC | -0.142 |
| TAACCCAA | 0.141 |
| AGTAAGGA | -0.137 |
| CCCAATTC | 0.162 |
| AGTAGTAC | 0.162 |

| Sequence | PBM E-score |
| --- | --- |
| CAATAAGC | -0.0887 |
| GGCATACC | -0.204 |
| ATATGAGC | 0.00122 |
| CAAAGCTG | 0.0334 |
| AACCGAGT | -0.0962 |
| AAGGTTAT | 0.0922 |
| AACTGTTA | 0.217 |
| CCTGCGTA | -0.19 |
| GGCAAAGA | 0.095 |
| AATGGTTC | 0.0835 |
| GAGTGGCC | -0.037 |
| ACACGTCG | -0.206 |
| AGTGCGTG | -0.00058 |
| GCATCGCC | 0.0168 |
| ATGAGACA | -0.0116 |
| GACCGAAC | 0.0271 |
| ACGGGCGG | -0.239 |
| ATTTCCTA | 0.135 |
| TCAGCAAA | 0.0208 |
| ATCCGTCA | 0.0376 |
| AAGTTTCT | 0.17 |
| ACGCCTAT | -0.188 |

| Sequence | PBM E-score |
| --- | --- |
| TCGACTCA | 0.036 |
| CAAGCCGG | 0.152 |
| AAGCTTTC | 0.146 |
| GAGAGCGC | -0.14 |
| CGCGACCG | -0.205 |
| GCAGTCTA | -0.135 |
| AGTTCGGG | 0.0543 |
| GCATCGTA | -0.0143 |
| CGCAGTAA | 0.11 |
| GAAATTAC | 0.292 |
| GCAGCTAA | -0.197 |
| ATCTGCAG | 0.0906 |
| CTAGCAGC | -0.103 |
| CACTGTTC | -0.123 |
| TAAGTTCA | 0.0818 |
| GCGAACGC | -0.266 |
| CAGCTTGC | -0.163 |
| ACCCCTTG | -0.321 |
| ACTAGTTC | 0.122 |
| CCAGATTA | 0.0432 |
| ATGTTACA | 0.0659 |
| ATATACAG | 0.148 |

| Sequence | PBM E-score |
| --- | --- |
| GGTTAGTA | -0.0393 |
| AAAAGTAC | 0.167 |
| ACACGGAA | 0.18 |
| ATAGATGA | 0.0702 |
| ATCCTTAC | 0.0692 |
| CAGAGCCA | -0.285 |
| AGGCTTTA | 0.0818 |
| CGGGCAAA | 0.0553 |
| ACCCGTGG | -0.405 |
| ATCGATAA | 0.0315 |
| AACCTACG | 0.0309 |
| CAATATGG | -0.0809 |
| CTCGACAA | -0.0222 |
| GTTTTGGA | 0.0457 |
| TATGGAGA | 0.144 |
| CCTGAATC | -0.0375 |
| AGGTACCT | -0.164 |
| GAATGATC | -0.0913 |
| CGTTCGTA | 0.15 |
| ACGTACCG | -0.157 |
| CGTAAGAG | -0.013 |
| ACCATACA | -0.0658 |
